Measured values reported in patent US7923016 (MEDICAL COLLEGE OF WISCONSIN RESEARCH FOUNDATION, dated 2011).

Biological target: CXC chemokine receptor 4 (CXCR4) on THP-1 cells (UniProt P61073 1-352, limits assumed)
Test: cell-based or functional assay

Chain of UniProt P61073 (P61073 whole entry): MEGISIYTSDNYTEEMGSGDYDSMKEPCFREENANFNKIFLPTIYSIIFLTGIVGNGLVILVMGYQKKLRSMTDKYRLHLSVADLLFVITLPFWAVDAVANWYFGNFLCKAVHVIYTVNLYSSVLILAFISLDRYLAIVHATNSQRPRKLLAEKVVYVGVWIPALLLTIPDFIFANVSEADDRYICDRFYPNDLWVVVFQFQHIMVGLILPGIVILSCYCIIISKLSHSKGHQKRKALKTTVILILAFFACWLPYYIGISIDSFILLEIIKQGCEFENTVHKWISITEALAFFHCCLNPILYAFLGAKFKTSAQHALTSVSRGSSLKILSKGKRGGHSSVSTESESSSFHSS

B1: CXCL12-α2 (L36C/A65C) locked dimer polypeptide (ligand)
chain: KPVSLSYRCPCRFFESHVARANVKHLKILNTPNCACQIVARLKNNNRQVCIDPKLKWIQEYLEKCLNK
For B1, the “EC50, CXCR4 activation, Ca2+-flux in THP-1 cells” value was 12.9 nM and the “IC50, inhibition of THP-1 chemotaxis induced by wild-type CXCL12-α (10 nM)” value was roughly 4 nM.
